Laboratory results reported in PubChem BioAssay AID1347417 (National Center for Advancing Translational Sciences (NCATS), 2020).
The whole screen tested about 120,000 compounds, of which about 5,300 (4.4%) were called active. This list was built around the results that the source calls inconclusive (neither active nor inactive); the mix of calls is not that of the screen. Calls follow the shape of the dose curve; as a rule, active = well fitted inhibition curve with a large enough effect; inconclusive = small, poorly fitted or top-dose-only effect; inactive = no such curve, though single readings can be large or run the other way. Where the call is inconclusive, the potency comes from a doubtful curve fit.
Potency is read from the fitted curve at half-maximal effect; tags tell the direction and shape of the fitted curve.

Assay: qHTS Primary assay for Inhibitors of Plasmodium falciparum Dd2 growth in vitro; also: nearly all actives have a fitted effect of over 65% in size;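 as to activity, negative = inhibition: plate controls were DMSO vehicle for no effect and reference drug for full effect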
Conditions: P. falciparum Dd2 growth, SYBR Green, 72 h; activity, negative = inhibition: at 28.9 µM (top of the series) unless noted; series mostly up to 28.9 µM
In short: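 Infected erythrocytes (Dd2, 0.3% parasitemia, 2.5% hematocrit final) are added to compound in RPMI-1640/Albumax II medium, grown 72 h at 37C in low oxygen, then lysed with saponin/Triton-X containing SYBR Green and read by fluorescence.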
In the case of `c1coc(-c2nnc([C@H]3CCN(Cc4cccs4)C3)o2)c1`, the Potency is reported as inconclusive: 12.6 µM [inhibitor, partial curve].
For `OCC1CN(c2ncccn2)CC12CCN(Cc1ccc3[nH]ccc3c1)CC2` (configuration not stated), the Potency was inconclusive: 17.8 µM [inhibitor, single point].
In the case of `COc1cccc(Nc2cccc(CN3CCC(C)(NC(C)=O)C3)c2)c1` (configuration not stated), the Potency is reported as inconclusive: 3.55 µM [inhibitor, partial curve, poor fit].
In the case of `Cc1ccc(NC(=O)c2oc3ccc(S(=O)(=O)N4CCCCC4)cc3c2C)cc1C`, the Potency is reported as inconclusive: 7.94 µM [inhibitor, partial curve].
For `COCCOc1cc(C)c2c(c1C)C[C@H](C(C)C(=O)N1CCOCC1)CC2` (some centres not stated), the “activity, negative = inhibition” value was inactive: -3.18% [at 44.1 µM].
In the case of `COc1cccc(CN2CCc3nc(C(C)C)nc(-c4ccc(O)cc4)c3CC2)c1`, the Potency is reported as inconclusive: 1.58 µM [inhibitor, partial curve, poor fit].
In the case of `CCn1c2c(c(=O)n1-c1ccccc1)CCN(C(=O)c1ccc(Oc3ccccc3)cc1)C2`, the Potency is reported as inconclusive: 17.8 µM [inhibitor, single point].
With `CN1Cc2ccc(Nc3ccccc3)nc2C(C)(C(=O)NCc2ccc3c(c2)OCO3)C1` (configuration not stated) the Potency was inconclusive: 1.26 µM [inhibitor, partial curve].
With `Cc1cccc(-c2nc(CCNC(=O)c3ccco3)cs2)c1` the Potency was inconclusive: 17.8 µM [inhibitor, single point].
For `CCOC(=O)c1ccc(NC(=O)CCS(=O)(=O)c2ccc(C)cc2)cc1`, the “activity, negative = inhibition” value was inactive: 3.65%.
For `COC1CN(c2ccc(C)cc2)C12CCN(C(=O)CCc1nc3ccccc3s1)CC2` (configuration not stated), the Potency was inconclusive: 0.501 µM [inhibitor, full curve, poor fit].
With `COc1ccc(N2CCN(S(=O)(=O)c3csc(C(N)=O)c3)CC2)cc1` the Potency was inconclusive: 17.8 µM [inhibitor, single point].
In the case of `Cc1csc(NC(=O)c2cnc3c(c2)N(C(=O)CCc2ccccc2)CCC3)n1`, the Potency is reported as inconclusive: 12.6 µM [inhibitor, partial curve, poor fit].
For `C#C[C@H]1CN2CC[C@H]1C[C@@H]2CNC(=O)c1ccc2c(c1)OCO2`, the “outcome” value was “inactive [at 44.1 µM]”.
With `O=C(Nc1cccc(-c2nc3ccccc3o2)c1)c1cc([N+](=O)[O-])ccc1N1CCOCC1` the Potency was active: 8.91 µM.
With `COc1ccc(CCC(=O)N2CCC3(CC2)N(C)C(=O)CS3=O)cc1` (configuration not stated) the “activity, negative = inhibition” value was inactive: 7.97%.
In the case of `CCc1ccc(CNC(=O)CN2C(=O)NC3(CCCCC3)C2=O)cc1`, the “activity, negative = inhibition” value is reported as inactive: -16.7%.
With `COC(=O)CC1Oc2ccc(F)cc2-n2cc(-c3ccc(Cl)cc3)nc21` (configuration not stated) the Potency was active: 11.2 µM.
For `COc1ccc(CN2CCN(CCC=C(C)C)CC2CCO)cc1C` (configuration not stated), the Potency was inconclusive: 8.91 µM [inhibitor, partial curve, poor fit].
For `COc1ccc(CCC(=O)N2C[C@@H]3CCCN4CCC[C@@H]([C@H]34)[C@H]2CCCC(=O)N2CCOCC2)cc1`, the Potency was inconclusive: 20 µM [inhibitor, single point].
In the case of `CCN1C(=O)CCC2(C(=O)NCCN(C)C3CCCCC3)CCCC=C12` (configuration not stated), the Potency is reported as inconclusive: 4.47 µM [inhibitor, partial curve, poor fit].
With `COc1ccc(CNC(=O)NC2CCc3nn(CC4CC4)c(=O)n3CC2)cc1` (configuration not stated) the “activity, negative = inhibition” value was inactive: 44%.
With `COc1ccc2[nH]c3c(c2c1)CCN(C)C31CCNCC1` the “activity, negative = inhibition” value was inactive: -24.9%.
In the case of `CC(C)N[C@@H]1CC[C@@H]1NC(=O)c1ccccc1OC(F)(F)C(F)F`, the Potency is reported as active: 7.94 µM.
In the case of `COc1ccc(-c2noc(CC3CCN(C(=O)c4cc(F)ccc4Cl)CC3)n2)cc1`, the Potency is reported as inconclusive: 7.94 µM [inhibitor, single point].
With `CC(C)Oc1ccc(CNC(=O)CCC2CCN(C(=O)c3ccccc3)CC2)cc1` the “outcome” value was “inactive”.
For `COc1ccc(CCNC(=O)CCCn2c(=O)c3ccccc3n(Cc3ccc(C)cc3)c2=O)cc1OC`, the Potency was inconclusive: 17.8 µM [inhibitor, single point].
For `COc1cc(=O)n2c(c1C(=O)Nc1ccc(C)cc1Cl)CCCC2`, the “activity, negative = inhibition” value was inactive: 39.2%.
In the case of `Fc1ccccc1-c1cc2c(cn1)CN(Cc1cccnc1)CCN2`, the Potency is reported as inconclusive: 31.6 µM [inhibitor, single point].
In the case of `CCC1=C(C(=O)OC)C(c2ccc(OC)cc2)N2C(CC(=O)NCC3CC3)=CSC2=N1` (configuration not stated), the Potency is reported as inconclusive: 1.26 µM [inhibitor, partial curve, poor fit].
For `COc1ccc(-c2ccnc3nc(C(C)C)nn23)c(F)c1`, the Potency was inconclusive: 20 µM [inhibitor, single point].
With `O=C(CCS(=O)(=O)c1cc(Br)cc2c1N(C(=O)C1CC1)CC2)N1CCN(c2ccc(F)cc2)CC1` the Potency was active: 7.94 µM.
For `Cc1ccc(N(C)C(=O)Cn2cnc3onc(-c4ccc(F)cc4)c3c2=O)cc1C`, the Potency was inconclusive: 17.8 µM [inhibitor, single point].
In the case of `COC[C@H]1CCCN1C(=O)C[C@@H]1O[C@H](CNC(=O)Nc2ccccc2)[C@@H](O)[C@H]1O`, the “activity, negative = inhibition” value is reported as inactive: 13.1% [at 44.1 µM].
In the case of `CCCS(=O)(=O)N1CCC(Oc2ccccc2-c2nc(-c3ccncc3)no2)C1` (configuration not stated), the Potency is reported as inconclusive: 1.41 µM [inhibitor, partial curve, poor fit].
With `CCOc1ccc(Cc2nc(C3CC(=O)N(C4CCCCC4)C3)no2)cc1` (configuration not stated) the Potency was inconclusive: 12.6 µM [inhibitor, partial curve, poor fit].
In the case of `CC1CCc2nn3ccn(CC(=O)Nc4ccc(F)cc4)c(=O)c3c2C1` (configuration not stated), the Potency is reported as inconclusive: 20 µM [inhibitor, single point].
For `CC(C)CCN1CCCC2(C1)C(=NC1CCCCC1)NC(=O)N2c1cc(F)cc(F)c1` (configuration not stated), the Potency was active: 3.98 µM.
In the case of `CCC[C@@H]1CN(S(=O)(=O)c2ccc(OC(F)F)cc2)C[C@H]1N(C)C`, the Potency is reported as active: 5.62 µM.
For `COc1ccccc1-c1cc([C@H]2CN3CC[C@H]2C[C@@H]3CNC(=O)c2cccs2)n(C)n1`, the Potency was inconclusive: 2.51 µM [inhibitor, single point].
With `Cn1cc(CN2CCCC(COc3ccccc3C(=O)N3CCOCC3)C2)c2ccccc21` (configuration not stated) the “outcome” value was “inactive”.
In the case of `Cn1cccc1C(=O)N1C[C@@H](COc2ccccc2)[C@H](C(N)=O)C1`, the Potency is reported as inconclusive: 2.24 µM [inhibitor, partial curve, poor fit].
With `O=C(CCC[C@@H]1[C@H]2CCCN3CCC[C@@H](CN1C(=O)c1ccccc1)[C@@H]23)NCCCN1CCCC1=O` the “activity, negative = inhibition” value was inactive: -3.07%.
For `COc1ccccc1OCCn1c(COc2cc(C)ccc2C)nc2ccccc21`, the Potency was active: 6.31 µM.
In the case of `COc1ccc(C(N)CC(=O)N2CCC3(CC2)CN(C)C(=O)O3)cc1OC` (configuration not stated), the “activity, negative = inhibition” value is reported as inactive: -9.51%.
In the case of `COCCNC(=O)C1COC2(CCN(C(=O)c3ccc(OC)cc3)CC2)N1C(=O)c1ccc(C)cc1` (configuration not stated), the Potency is reported as inconclusive: 6.31 µM [inhibitor, partial curve].
In the case of `Cc1cc(Nc2ccccc2C)nc(-n2nc(C)cc2C)n1`, the Potency is reported as inconclusive: 3.98 µM [inhibitor, partial curve, poor fit].
For `COc1ccc(CCNC(=O)c2cc(C)nc3c2c(C)nn3-c2ccc(C)cc2)cc1OC`, the Potency was inconclusive: 17.8 µM [inhibitor, single point].
In the case of `O=C(CCc1ccccc1)N1CCC(O)(c2csc(CN3CCc4ccccc4C3)n2)CC1`, the Potency is reported as inconclusive: 17.8 µM [inhibitor, single point].
In the case of `CCN(CC)CCCNC(=O)c1ccc2nc(N3CCCCC3)sc2c1`, the “activity, negative = inhibition” value is reported as inactive: -9.28%.
In the case of `CCCS(=O)(=O)N1C[C@@H](Oc2cccnc2)C[C@@H]1C(=O)NC`, the “activity, negative = inhibition” value is reported as inactive: 4.21%.
For `COc1ccc(Nc2cccc(CN3CCCC(C)(NC(C)=O)C3)c2)cc1` (configuration not stated), the Potency was inconclusive: 11.2 µM [inhibitor, partial curve].
For `Cc1c(F)cccc1NC(=O)Nc1cccc(-c2ccc(N3CCOCC3)nn2)c1`, the Potency was inconclusive: 17.8 µM [inhibitor, single point].
For `CN1CCN(C(=O)c2csc(N3CCN(c4ccc(Cl)cc4)CC3)n2)CC1`, the Potency was inconclusive: 20 µM [inhibitor, single point].
With `O=C(c1ccc(F)cc1)N1CCC2(CC1)COc1ccccc1[S+](=O)([O-])N2` the “outcome” value was “inactive”.
In the case of `Cc1ccc(CN2CCCC3(COc4ccccc4C(=O)N3)C2)cc1` (configuration not stated), the Potency is reported as active: 12.6 µM.
With `CCn1cc(S(=O)(=O)N2CCCC2c2nncn2Cc2ccncc2)cn1` (configuration not stated) the “activity, negative = inhibition” value was inactive: 0.225%.
For `COCc1nc2nccc(-c3ccc4c(c3)CC(C)O4)n2n1` (configuration not stated), the “activity, negative = inhibition” value was inactive: -21.4%.
In the case of `CN1CCCCC12Cc1ccccc1CN(C(=O)C1CCCC1)C2` (configuration not stated), the Potency is reported as inconclusive: 10 µM [inhibitor, partial curve, poor fit].
In the case of `CCCOc1ccc(CN(C(=O)c2cc(=O)c3ccc(C)cc3o2)C2CCS(=O)(=O)C2)cc1` (configuration not stated), the Potency is reported as inconclusive: 17.8 µM [inhibitor, partial curve, poor fit].
With `CCOc1ccccc1CN1CCc2nc(N3CCN(c4ccccc4F)CC3)ncc2C1` the Potency was active: 8.91 µM.
For `COc1ccc(CN2C(=O)[C@@H]3C[C@@H](CN3C(C)C)Oc3ccccc32)cc1`, the “activity, negative = inhibition” value was inactive: 25.6% [at 44.1 µM].
In the case of `O=C(N[C@@H]1CCC[C@@H]1C(=O)N1CCCC1)c1ccncc1`, the “activity, negative = inhibition” value is reported as inactive: 9.09%.
In the case of `CCCS(=O)(=O)N1CCC2(CC1)c1[nH]c3ccccc3c1CCN2C`, the Potency is reported as inconclusive: 3.55 µM [inhibitor, full curve, poor fit].
For `Cn1cc(CC(=O)N2CCCc3ncc(C(=O)NCc4cccc(F)c4)cc32)c2ccccc21`, the Potency was inconclusive: 20 µM [inhibitor, single point].
For `COCCCNC(=O)CCC[C@@H]1[C@H]2CCCN3CCC[C@@H](CN1C(=O)c1cccnc1)[C@@H]23`, the “activity, negative = inhibition” value was inactive: 8.74%.
With `COc1cc(C2CC(=O)c3c([nH]c(C(=O)OCC4CCCCC4)c3C)C2)cc(OC)c1OC` (configuration not stated) the Potency was inconclusive: 3.16 µM [inhibitor, full curve].
